Measured values published in PubChem BioAssay AID2202238 (Ras Initiative Chemistry Research Team, Frederick National …, 2025).
The list shows a part of the results. Further columns of the screen follow, without active or inactive calls.

Target: GTPase KRas (Homo sapiens) (UniProt P01116)
Experiment: Cysteine mutants labelled by reactive fragments (mass read-out) (AID 2202238)
Set-up: protein at 5 µM with 500 µM competing thiol for 1.5 h
Settings: KRAS G12D cysteine mutants, disulfide tethering, MALDI-TOF labeling, stronger effect = higher value, fragment at 500 µM
[1] = measured here: G75C mutant labeling
[2] = measured here: H94C mutant labeling
[3] = measured here: I36C mutant labeling
[4] = measured here: L120C mutant labeling
[5] = measured here: M67C mutant labeling
[6] = measured here: M72C mutant labeling
[7] = measured here: N86C mutant labeling
[8] = measured here: P121C mutant labeling
[9] = measured here: S122C mutant labeling
[10] = measured here: S136C mutant labeling
[11] = measured here: G60C mutant labeling
[12] = measured here: N26C mutant labeling

Chain of UniProt P01116 (P01116 whole entry, looked up, the tested form may be a part): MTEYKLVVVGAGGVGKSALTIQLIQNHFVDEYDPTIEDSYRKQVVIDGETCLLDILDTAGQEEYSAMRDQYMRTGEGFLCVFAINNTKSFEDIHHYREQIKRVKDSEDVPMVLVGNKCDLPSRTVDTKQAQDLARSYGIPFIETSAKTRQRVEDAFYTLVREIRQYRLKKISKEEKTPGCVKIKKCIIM

| SMILES | percent labeling [1] | percent labeling [2] | percent labeling [3] | percent labeling [4] | percent labeling [5] | percent labeling [6] | percent labeling [7] | percent labeling [8] | percent labeling [9] | percent labeling [10] | percent labeling [11] | percent labeling [12] |
| --- | --- | --- | --- | --- | --- | --- | --- | --- | --- | --- | --- | --- |
| CN(CC(=O)Nc1ccc2c(c1)OCCO2)C(=O)CCS | 11.9% | 32.9% | 38% | 45.9% | 33.9% | 30.3% | 30% | 32.4% | 31.9% | 45.2% | – | – |
| COc1cccc(Cn2nc(C)c3c(NC(=O)CCS)[nH]nc32)c1 | 15% | 19.2% | 30% | 20.3% | 22.6% | 23.4% | 14.2% | 15.8% | 18.4% | 47.2% | – | – |
| O=C(NCCS)C(F)(F)c1ncc[nH]1 | 24.4% | 23.9% | 20.1% | 30.5% | 21.1% | 20.7% | 26.8% | 19.1% | 21.1% | 30.9% | 28.6% | 24.2% |
| COc1ccc2c(c1)CC1(CCN(C(=O)CCS)CC1)C2=O | 15.6% | 34% | 38% | 24.4% | 44.6% | 53.1% | 28.1% | 26.2% | 24% | 48% | – | – |
| CCc1oc2ccccc2c1CC(=O)NCCS | 24.5% | 24.6% | 13% | 35% | 15.1% | 36.6% | 15.9% | 18.8% | 14.6% | 31.8% | 59.6% | 26.5% |
| O=C(CCS)Nc1ccc(-c2nnc3n2CCOC3)cc1 | 12% | 22.1% | 34% | 30.5% | 26.9% | 37.6% | 18.8% | 24.1% | 23.2% | 33.2% | – | – |
| O=C(CNC(=O)c1cc2ccccc2[nH]1)NCCS | 9.1% | 16.1% | 16.3% | 26.6% | 19.7% | 24.2% | 16.2% | 15.6% | 12.8% | 15.5% | 19.3% | 37.9% |
| COc1ccnc(N2CCN(C(=O)CCS)CC2)n1 | 20.2% | 36% | 42.5% | 32% | 42.8% | 33.1% | 31% | 33.7% | 36.8% | 66% | – | – |
| COc1ccc(-n2nc(C(=O)NCCS)cc2C)cc1 | 14.6% | 38.4% | 23.3% | 32.3% | 34.2% | 27.6% | 21% | 26.5% | 25.4% | 43.4% | 41.3% | 43.3% |
| O=C(NCCS)c1ccc(Cc2n[nH]c(=O)c3ccccc23)cc1F | 9.5% | 10.6% | 7.6% | 9.3% | 9.8% | 39.7% | 8.3% | 7.4% | 3.9% | 17.1% | 20.3% | 24.6% |
| Cc1nn(C2CCOCC2)cc1NC(=O)CCS | 8% | 26.7% | 25.8% | 30% | 30.4% | 16.1% | 11.3% | 30.2% | 34.4% | 47.8% | – | – |
| Cc1cc(C)n2nc(CC(=O)NCCS)nc2n1 | 10% | 24% | 20.3% | 53.9% | 26.6% | 15.8% | 21.2% | 28.4% | 30.5% | 39% | 22.9% | 31.5% |
| Cc1nc(C2CCN(C(=O)CCS)CC2)no1 | 11.5% | 30.5% | 32% | 33% | 30.8% | 16.2% | 22.4% | 29.6% | 33% | 53.6% | – | – |
| O=C(NCCS)c1ccc2nnc(-c3ccccc3)n2c1 | 19.1% | 28.1% | 33.2% | 24.6% | 32.6% | 50.7% | 17% | 20% | 20% | 53.3% | 38.3% | 45.3% |
| Cc1nn(C)c(C)c1CC(=O)N1CCC(C(=O)NCCS)CC1 | 10.4% | 30.3% | 22% | 22.5% | 27% | 14.5% | 18.4% | 24.4% | 20.5% | 43.4% | 22.7% | 34.6% |
| O=C(CCS)N1CCC(c2nc(-c3ccc(F)cc3)no2)(C(F)(F)F)C1 (stereo not drawn) | 7.1% | 20.5% | 8.7% | 7.7% | 8.2% | 25.2% | 9.8% | 15.8% | 5.5% | 16% | – | – |
| Cc1nc2c(cc(OCCNC(=O)CCS)c3ccsc32)s1 | 10.8% | 13% | 12.1% | 7.3% | 9.5% | 29.3% | 11.4% | 7.5% | 4.6% | 9.5% | – | – |
| Cc1cccc(NCC2CCCN2C(=O)CCS)n1 (stereo not drawn) | 15.1% | 44.4% | 43.9% | 29.7% | 51.4% | 33% | 26.7% | 30.1% | 31.2% | 71% | – | – |
| O=C(NCCS)C1CCN(C(=O)c2ccccc2)C1 (stereo not drawn) | 13.5% | 33.9% | 37.5% | 44.1% | 57.9% | 31.7% | 26.5% | 36.1% | 36.4% | 57.2% | 37.3% | 44.9% |
| Cc1ccc(Nc2nccc(C(F)(F)F)n2)cc1C(=O)NCCS | 7.1% | 6.7% | 5.4% | 7.4% | 4.9% | 35% | 3.7% | 4.7% | 2.7% | 5.4% | 16.9% | 27.5% |
| Cc1nc2cc(F)cc(C(=O)NCCS)c2nc1C | 11.5% | 28% | 23.5% | 19.7% | 29.9% | 32.8% | 10.8% | 15% | 14.1% | 32.2% | 21% | 24.4% |
| O=C(CCS)N1CCC(c2cc(CO)on2)CC1 | 12.4% | 29.8% | 32.9% | 31.8% | 36% | 20.2% | 20.5% | 33.4% | 39.7% | 53.4% | – | – |
| O=C(CCS)N1CCc2c(nc[nH]c2=O)C1 | 12.3% | 23.9% | 36.7% | 18.1% | 26.4% | 18.6% | 26.9% | 29.8% | 58.1% | 55% | – | – |
| Cc1cc(C)n(C2CN(C(=O)CCS)C2)n1 | 11% | 30.3% | 36.7% | 19.4% | 36.6% | 20.8% | 17.8% | 31.3% | 31.3% | 46.5% | – | – |
| O=C(NCCS)c1c(Cl)cnn1C1CCCC1 | 19.4% | 23.8% | 18.4% | 21% | 21.4% | 31.8% | 11.7% | 17.1% | 18.5% | 35.3% | 38.6% | 30.8% |
| CC(C)CN(Cc1ccccn1)C(=O)CCS | 18.6% | 40.6% | 41.4% | 32.3% | 43.7% | 38.3% | 29.3% | 43.4% | 43.8% | 69% | – | – |
| Cc1nn(C)c(-n2cncn2)c1NC(=O)CCS | 7.7% | 31.9% | 38.6% | 28.8% | 33% | 10.6% | 20.6% | 37.8% | 31.1% | 55% | – | – |
| O=C(CCS)NCC(=O)N1CCN(c2ccccc2)CC1 | 6.4% | 24.2% | 30.8% | 31.4% | 30.7% | 15.9% | 10.5% | 26.2% | 20.2% | 33.9% | – | – |
| O=C(NCCS)c1ccc(Oc2ccc(F)cc2Br)nc1 | 13.1% | 7.2% | 4.6% | 8.1% | 7% | 26.2% | 4.4% | 5.4% | 3.5% | 9.8% | 17.6% | 13.7% |
| O=C(NCCS)c1ccnc2nc(C3CCOCC3)[nH]c12 | 11% | 32% | 25.6% | 22% | 33.6% | 25.3% | 14.9% | 16.4% | 16% | 41.2% | 20.9% | 42.8% |
